This is one part of the list.

This experiment deals with PF3D7_0420300 AP2 domain 1 (GST-tagged). Nature of the experiment: gcPBM binding intensity (ln(normalized median fluorescence intensity)); higher = stronger DNA binding. An outline of the steps:
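Using an Agilent 4 × 180k array, primer-extended double-stranded 36-bp intergenic genomic probes and negative controls were exposed for 1 h to GST-fused P. falciparum DNA-binding domains expressed in E. coli. Binding was carried out in 1× PBS with 1% milk, 0.2 mg/ml BSA, 0.5% salmon testes DNA and 0.03% Triton X-100, and protein was detected with Alexa488 anti-GST antibody and a 488 nm scan. Binding intensity is the highest Masliner-normalised natural-log median intensity across replicate spots of either probe orientation.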
Turning to “TATTTCAAAATAAAATAAAATATATATATATGTATA [XGTACX_negctrl_site416]”, the “gcPBM binding intensity (ln)” value was 9.01.
Under “TAAATCATGGGATAAGCATGCGCGCACATGTTTGTT [TGCATGCA_site768]” stands 9.19; under “TTTATTTATTAAGAATGTACATGTATTTGTTAAATA [XGTACX_site4465]”, 8.93.
Under “GTATTATCTGCTTTTTGTACACATATATTTAAAAAA [XGTACX_site7603]” stands 9.31.
Next, “TTCTGTGTGTATTGGCGTACAATTATTTTGCCTACA [XGTACX_site205]”: 9.56.
As for “ACATTCACAAAATTTTGTACACATATATATATATAT [XGTACX_site3518]”, the “gcPBM binding intensity (ln)” value is 9.46.
Next, “AATGTGATAATATACACACACGCATATATATATATA [CACACA_site323]”: 9.72; “AAAACACTTATGGATTGTACAATAAAAATTATATTA [XGTACX_site7042]”: 9.26.
Under “CTGTGTAATTTAAATTGTACGTTTGAAAAAAATAAA [XGTACX_site5667]” stands 8.96; under “TTTTAAAGAAAAAAATGTACAAAATTTTTATTTTAA [XGTACX_site1496]”, 8.59.
Under “ACCCACGTAAATTAAGCATGCCTTCCGTTATATTTA [TGCATGCA_site365]” stands 9.54; under “TTTTACTAAATATATACACACATTATGCATATATAT [CACACA_site3287]”, 9.52.
In the case of “TATATGTAATATTATACATGCATACATAATATATAT [TGCATGCA_site558]”, the “gcPBM binding intensity (ln)” value stood at 9.22.
“TATGTGAATATAATCACACACAATACGGAAAGAGAC [CACACA_site7311]”: the “gcPBM binding intensity (ln)” value was determined as 10.2.
Next, “TTTTTTTTTTATAAGGCACACATGAATATTTATACA [CACACA_site1316]”: 9.17; “TATTATATATATATATGTACATATTGTATGTTATAT [XGTACX_site5303]”: 9.3.
Under “TTTTTTTCAATATTTGCACACGATTAAAATATTTAA [CACACA_site5266]” stands 9.22; under “TATGTGAATATTGAGGTGCGGTTGTTAAAATTTATA [GTGCAC_site9915]”, 9.31; under “TTAAATATTTTTTATACACACATTTCTTATTTAACT [CACACA_site229]”, 9.52.
Under “TAATTATTATTAATAGTACACACTATGGCATTTCAA [CACACA_site2488]” stands 9.19.
In the case of “AGTAGTCTGGAGAAGAGTACACAGTATCTGGTAGCT [XGTACX_site2042]”, the “gcPBM binding intensity (ln)” value was 9.11.
Next, “ACATTAACATTGTTGGTGCAAAATTAATATGTTTTT [GTGCAC_site9673]”: 9.24.
Regarding “ATAACTATAATAATCATACACACCAAAGAGAATATT [CACACA_site6970]”, the “gcPBM binding intensity (ln)” value came to 9.85.
As for “ATTTTTCATTCTGGACATGTTACCATTATATATATG [CACACA_negctrl_site61]”, the “gcPBM binding intensity (ln)” value stood at 9.55.
Under ATTATTACTTTTTGAGTGCACATACACACAGACATA stands 9.48; under “ATTAAAAAAATATACGCACACAAAATGTAATAACAA [CACACA_site2439]”, 9.71.
Next, “TAATTTGTTATGTATTGTACAAATAATATATGATAT [XGTACX_site1985]”: 9.13; “TTTTGTTTAAAAAAAAAAAACAAAAAAAAGCAATTA [CACACA_negctrl_site314]”: 9.
Under “TTACATAATTTATGTACACACGCAAATACTTATAAT [CACACA_site4331]” stands 9.43.
Consider “CCTAAAGTGTAAAATTCACACACATATATATATATA [CACACA_site8385]”, for which the “gcPBM binding intensity (ln)” value stood at 9.45.
“TTTATTTATAGGTATACACACTTTAATTAAAAGTTG [CACACA_site7232]”: the “gcPBM binding intensity (ln)” value is 9.26.
With “TTTATTTTTGAAGTTGCACACACAAAAATAAAAAGT [CACACA_site8030]”, the “gcPBM binding intensity (ln)” value was found to be 9.4.
Next, “CAAAAATAATTTAGGTGTACAAATTTGACAAAAAAA [XGTACX_site188]”: 9.15; “AATTCAATTGAGCAAAATTCAAATAAATTAAAAAGA [XGTACX_negctrl_site71]”: 9.1.
Next, “TGATAATATTATATATGTACATATATGTATATTTTT [XGTACX_site7193]”: 9.26; ATGAAACACTCCATAGTGCAAAATATATATTATATT: 9.29.
In the case of “CTATTTTTCCTGAAATGTACAAGAATTTTATTTGAT [XGTACX_site8867]”, the “gcPBM binding intensity (ln)” value was found to be 8.99.
Under “TTGGTATATTATAAAAGTACACATAATAAAAAATTT [XGTACX_site7985]” stands 9.26; under “ATATGGGTGAACATATGTACATATATATATTGATAA [XGTACX_site8438]”, 9.26.
For the sequence “TTTTACATAAATTATAAATATATAAAATAAAAAAAA [CACACA_negctrl_site1499]”, the “gcPBM binding intensity (ln)” value came out at 9.
Next, “TTAATATTCCAGCTTTGTACATATATATATTATAAA [XGTACX_site7954]”: 9.02; “TGGCTTTCCCTGCCGGTGCATTAACATTTTTTACAT [GTGCAC_site9914]”: 9.44.
On to “TTAATGGAAAAATAGGCACACACACCGATATACATA [CACACA_site8356]”, for which the “gcPBM binding intensity (ln)” value was determined as 9.94.
For the sequence “CATATATATATTTTTTGTACATATATTTTTACATAT [XGTACX_site8419]”, the “gcPBM binding intensity (ln)” value worked out at 9.55.
Next, “AAAAAGAAGAAGAAATGTACGTAACTATATATTTAT [XGTACX_site4362]”: 9.41.

The values above are taken from the supplement of paper PMC11417369.
